In PubChem BioAssay AID686978 (National Center for Advancing Translational Sciences (NCATS), 2013):
Where “and” joins values, the source holds several entries; their conditions need not be identical. Identical values can stand only once. About 64,000 (15%) of roughly 420,000 compounds were called active. Inconclusive results, whose numbers are uncertain, are shown with a selection of clear calls. Calls follow the shape of the dose curve; as a rule, active = well fitted inhibition curve with a large enough effect; inconclusive = small, poorly fitted or top-dose-only effect; inactive = flat fitted curve, though single readings scatter. Potencies of inconclusive entries are left out as doubtful fits.

Assay: qHTS for Inhibitors of human tyrosyl-DNA phosphodiesterase 1 (TDP1): qHTS in cells in absence of CPT; also: nearly all actives have a fitted effect of over 55% in size
Conditions: DT40 Tdp1-/- hTDP1 cells, no CPT, ATP luminescence, 48 h; activity change, negative = growth inhibition: at 46.2 µM (top of the series) unless noted
Summary of the method: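 Camptothecin absent (DMSO only). Human TDP1-complemented DT40 knockout cells, 400 cells/well, 37 °C for minimum 48 hr; ATP measured via CellTiter-Glo, 30 min dark incubation, luminescence.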
% is scaled to controls: 0 for no effect and ±100 for the full control effect; potency is read from the fitted curve at half-maximal effect; tags tell the direction and shape of the fitted curve.

| Structure (SMILES) | Potency | activity change, negative = growth inhibition |
| --- | --- | --- |
| COc1ccc(-c2cc(C(=O)Nc3ccc(Cl)cc3Cl)c3ccccc3n2)cc1OC | inconclusive [inhibitor, partial curve] |  |
| CCOC(=O)CNS(=O)(=O)c1cc(-c2nnc(Nc3cccc(O)c3)c3ccccc23)ccc1C | inconclusive [inhibitor, single point] |  |
| CC1CCN(CC(=O)c2c[nH]c3ccccc23)CC1 | inconclusive [inhibitor, partial curve, poor fit] |  |
| COc1ccccc1C(=O)O/N=C1/CCCc2c1ccc(OC)c2[N+](=O)[O-] | inconclusive [inhibitor, partial curve] |  |
| COc1cc2[nH]c(=S)nc(NCc3ccc(C)cc3)c2cc1OC | active: 23.1 µM |  |
| Cc1ccccc1C(=O)NNC(=O)c1cccc([N+](=O)[O-])c1 |  | inconclusive: -32.5% [inhibitor] |
| O=C(c1ccncc1)N1CCN(S(=O)(=O)c2ccc(OC(F)(F)F)cc2)CC1 | inconclusive [inhibitor, single point] |  |
| COC(=O)Cc1c(O)ccn(Cc2ccccc2OC)c1=O | inconclusive [inhibitor, partial curve] |  |
| CCN(CC)S(=O)(=O)c1ccc(N2CCOCC2)c(NC(=O)CC23CC4CC(CC(Br)(C4)C2)C3)c1 | inactive |  |
| Cc1cccc(C)c1-n1nnnc1C(c1ccnc2ccccc12)N(CCC#N)Cc1ccccc1 (stereo not given) | active: 10.3 µM |  |
| COc1ccccc1C(=O)Nc1nc(-c2ccc(S(=O)(=O)N3CCOCC3)cc2)cs1 | active: 2.31 µM |  |
| COc1ccc(N2CCN(Cc3nc4c(c(=O)n(C)c(=O)n4C)n3CCc3ccccc3)CC2)cc1 | inconclusive [inhibitor, partial curve] |  |
| CCC(=O)Nc1nonc1-c1nc2ccccc2n1CC(C)C | active: 23.1 µM |  |
| COc1cc2c(cc1OC)CN(Cc1cc(=O)oc3cc(C)c(Cl)cc13)CC2 | inconclusive [inhibitor, partial curve] |  |
| CCO[C@@H]1OC(C(=O)O)=C[C@H](c2ccc3c(c2)OCO3)[C@H]1CCCO | inactive |  |
| Clc1ccccc1Cn1nnc2c(N3CCCC3)ncnc21 | inconclusive [inhibitor, single point] |  |
| Cn1nnnc1SCc1ccc(C(=O)Nc2nccs2)cc1 | inactive |  |
| COc1cc([N+](=O)[O-])ccc1NC(=O)CN1CCc2cc(OC)c(OC)cc2C1 | inconclusive [inhibitor, partial curve, poor fit] |  |
| Cc1ccc(OCc2nnc(SCC(=O)c3ccccc3)n2-c2ccccc2)cc1 | inconclusive [inhibitor, single point] |  |
| CCOC(=O)Cc1csc(NC(=O)c2ccc3ncsc3c2)n1 | inconclusive [inhibitor, full curve] |  |
| Cc1cc2nc(C(C)(C)C)c(Cc3ccsc3)n2c(C)c1Br | inconclusive [inhibitor, single point] |  |
| O=C(NCCCN1CCOCC1)c1cccc(S(=O)(=O)Nc2cc(Cl)ccc2Cl)c1 | inactive |  |
| O=C(NCCc1ccccc1)c1c(F)c(F)c(F)c(F)c1F | inactive |  |

| Structure (SMILES) | Potency | activity change, negative = growth inhibition |
| --- | --- | --- |
| CN(CC(=O)Nc1cccc(F)c1)C(=O)/C=C/c1cn(Cc2ccccc2)nc1-c1cccnc1 | inconclusive [inhibitor, single point] |  |
| O=C(Cn1ncc2c(=O)oc3ccccc3c21)NC1CC1 | inactive |  |
| CCN(C(=O)CN1CCCCCC1)c1c(N)n(Cc2ccccc2)c(=O)[nH]c1=O | inactive |  |
| Cc1ccc(N2C(=O)CC(C)CC2=O)cc1 | inactive |  |
| CSc1ccc(Cl)c(C(=O)NCc2ccco2)c1 | inconclusive [inhibitor, single point] |  |
| CCN(CC)c1cc(C)c2cc(NC(=O)c3ccccc3OC)ccc2n1 | active: 23.1 µM and active: 16.4 µM |  |
| CCSc1nc(-c2ccccc2)c(C#N)c(=O)[nH]1 | inactive |  |
| CCn1nc(NC(=O)C(C)C)c2cc3cccc(C)c3nc21 | inconclusive [inhibitor, single point] |  |
| CCOc1cc(/C=N/NC(=O)C(OC)c2ccccc2)ccc1O (stereo not given) | inactive |  |
| COc1ccccc1CCN1C(=S)NC(C)(C)CC1(C)O (stereo not given) | inconclusive [inhibitor, single point] |  |
| CSc1ccccc1NC(=O)CSc1nnnn1-c1ccccc1SC |  | inconclusive: -35.3% [inhibitor] |
| O=C(Nc1nc(-c2cccs2)cs1)c1ccc(S(=O)(=O)N2CCCCC2)cc1 | inconclusive [inhibitor, single point] |  |
| Cc1cccc(C)c1NC(=S)NN(Cc1ccccc1)c1ccccc1 | inconclusive [inhibitor, single point] |  |
| Cc1nc2ccccn2c1-c1ccnn1S(=O)(=O)c1ccc(F)cc1 | active: 11.6 µM |  |
| COC(=O)C1=C(C(=O)OC)[C@@H]2Nc3ccccc3[C@@]23C[C@@H](C(=O)OC)N(C(=O)c2ccc(Br)cc2)C3=N1 | inconclusive [inhibitor, partial curve] |  |
| N#Cc1cnc(Sc2ccccc2)nc1 | inconclusive [inhibitor, single point] |  |
| Cc1nc(-c2cccc(S(=O)(=O)N3CCCC(C)C3)c2)cs1 (stereo not given) | inconclusive [inhibitor, single point] |  |
| O=C(O)CCCNC(=O)/C(=C\C=C\c1ccccc1)NC(=O)c1ccccc1Cl | inactive |  |
| CCn1c(=O)c2sccc2n2c(CCCC(=O)N3CCN(c4cc(Cl)ccc4C)CC3)nnc12 | active: 8.2 µM |  |
| Cc1cc(C)c(OCCNC(=O)c2ccccc2Sc2ccccc2C#N)c(C)c1 | inconclusive [inhibitor, partial curve] |  |
| O=C(CNC(=O)C12CC3CC(CC(C3)C1)C2)N1CCN(S(=O)(=O)/C=C/c2ccccc2)CC1 | inconclusive [inhibitor, partial curve, poor fit] |  |
| C=CCOc1ccc(/C=C2/C(=N)N3N=C(CC(=O)N4CCCC4)SC3=NC2=O)cc1OC | inactive |  |
